# Data reported in article PMC12820563, “FoxP3 forms a head-to-head dimer in vivo and stabilizes its multimerization on adjacent microsatellites”.
# The list shows a part of the results.
# Molecular target: T1, MBP-FoxP1dN (Mus musculus, UniProt P58462 326-579)
# T1 sequence: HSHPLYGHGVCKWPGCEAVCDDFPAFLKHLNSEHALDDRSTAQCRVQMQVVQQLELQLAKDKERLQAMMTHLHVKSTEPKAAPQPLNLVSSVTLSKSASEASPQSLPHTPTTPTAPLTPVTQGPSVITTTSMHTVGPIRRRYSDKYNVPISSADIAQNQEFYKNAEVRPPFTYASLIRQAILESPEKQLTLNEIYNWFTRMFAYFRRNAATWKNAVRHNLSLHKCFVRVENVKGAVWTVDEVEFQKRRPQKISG
# Assay: PD-seq (MBP pull-down with sequencing); 20 mM Tris-HCl pH 7.5, 100 mM NaCl, 1.5 mM MgCl2, 0.4 uM protein, 0.1 uM dsDNA library, 30 min, room temperature, amylose pull-down; high values mean tight binding
# Settings: protein: recombinant; tags: His6-MBP; chain copies: 2; dsDNA, one strand shown
# Method in brief: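 The N-terminus-lacking fragment of mouse FoxP3 or FoxP1 carried a His6-MBP tag and was expressed in E. coli. At 0.4 µM it was incubated with 0.1 µM Klenow-filled degenerate double-stranded DNA library for 30 min at room temperature in Tris pH 7.5 buffer with NaCl and MgCl2, and complexes were caught on amylose resin, washed three times, released with proteinase K, PCR-barcoded and Illumina-sequenced. Binding is reads-per-million enrichment of pull-down over input with replicates pooled.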
row,Sequence,binding signal
1,GATGATTGTTCTCCCAGCTGATGAATTCACAGGGTCGAGTAAACAAATTTTCCTAATCTTTCTGTTCAAGCGCCATCTAC,0.744 RPM ratio (pull-down/input)
2,GATGATTGTTCTCCCAGCTGATGAATTTGCTTCCTCGAGTAAACAAATTTTCCTAATCTTTCTGTTCAAGCGCCATCTAC,0.968 RPM ratio (pull-down/input)
3,GATGATTGTTCTCCCAGCTGATGAATTGATGCCATCGAGTAAACAAATTTTCCTAATCTTTCTGTTCAAGCGCCATCTAC,1.39 RPM ratio (pull-down/input)
4,GATGATTGTTCTCCCAGCTGATGAATTCGTGTTTTCGAGTAAACAAATTTTCCTAATCTTTCTGTTCAAGCGCCATCTAC,2.29 RPM ratio (pull-down/input)
5,GATGATTGTTCTCCCAGCTGATGAATTCTCGTTATCGAGTAAACAAATTTTCCTAATCTTTCTGTTCAAGCGCCATCTAC,0.953 RPM ratio (pull-down/input)
6,GATGATTGTTCTCCCAGCTGATGAATTAGCCACTTCGAGTAAACAAATTTTCCTAATCTTTCTGTTCAAGCGCCATCTAC,0.908 RPM ratio (pull-down/input)
7,GATGATTGTTCTCCCAGCTGATGAATTTCAGCCTTCGAGTAAACAAATTTTCCTAATCTTTCTGTTCAAGCGCCATCTAC,0.78 RPM ratio (pull-down/input)
8,GATGATTGTTCTCCCAGCTGATGAATTTATATGATCGAGTAAACAAATTTTCCTAATCTTTCTGTTCAAGCGCCATCTAC,1.14 RPM ratio (pull-down/input)
9,GATGATTGTTCTCCCAGCTGATGAATTCAAACTGTCGAGTAAACAAATTTTCCTAATCTTTCTGTTCAAGCGCCATCTAC,0.837 RPM ratio (pull-down/input)
10,GATGATTGTTCTCCCAGCTGATGAATTTGTATTGTCGAGTAAACAAATTTTCCTAATCTTTCTGTTCAAGCGCCATCTAC,2.88 RPM ratio (pull-down/input)
11,GATGATTGTTCTCCCAGCTGATGAATTCTGCACTTCGAGTAAACAAATTTTCCTAATCTTTCTGTTCAAGCGCCATCTAC,0.89 RPM ratio (pull-down/input)
12,GATGATTGTTCTCCCAGCTGATGAATTGCACTACTCGAGTAAACAAATTTTCCTAATCTTTCTGTTCAAGCGCCATCTAC,1.21 RPM ratio (pull-down/input)
13,GATGATTGTTCTCCCAGCTGATGAATTGCCACTCTCGAGTAAACAAATTTTCCTAATCTTTCTGTTCAAGCGCCATCTAC,1.02 RPM ratio (pull-down/input)
14,GATGATTGTTCTCCCAGCTGATGAATTGTGACTGTCGAGTAAACAAATTTTCCTAATCTTTCTGTTCAAGCGCCATCTAC,1.08 RPM ratio (pull-down/input)
15,GATGATTGTTCTCCCAGCTGATGAATTGGGATCGTCGAGTAAACAAATTTTCCTAATCTTTCTGTTCAAGCGCCATCTAC,0.853 RPM ratio (pull-down/input)
16,GATGATTGTTCTCCCAGCTGATGAATTCACATTTTCGAGTAAACAAATTTTCCTAATCTTTCTGTTCAAGCGCCATCTAC,1.02 RPM ratio (pull-down/input)
17,GATGATTGTTCTCCCAGCTGATGAATTAAAATAGTCGAGTAAACAAATTTTCCTAATCTTTCTGTTCAAGCGCCATCTAC,0.95 RPM ratio (pull-down/input)
18,GATGATTGTTCTCCCAGCTGATGAATTAGAATTTTCGAGTAAACAAATTTTCCTAATCTTTCTGTTCAAGCGCCATCTAC,1.05 RPM ratio (pull-down/input)
19,GATGATTGTTCTCCCAGCTGATGAATTGACAGCTTCGAGTAAACAAATTTTCCTAATCTTTCTGTTCAAGCGCCATCTAC,1.07 RPM ratio (pull-down/input)
20,GATGATTGTTCTCCCAGCTGATGAATTCTTGGCTTCGAGTAAACAAATTTTCCTAATCTTTCTGTTCAAGCGCCATCTAC,0.855 RPM ratio (pull-down/input)
21,GATGATTGTTCTCCCAGCTGATGAATTTGACGTCTCGAGTAAACAAATTTTCCTAATCTTTCTGTTCAAGCGCCATCTAC,0.791 RPM ratio (pull-down/input)

row,Sequence,binding signal
1,GATGATTGTTCTCCCAGCTGATGAATTCGGTTTCTCGAGTAAACAAATTTTCCTAATCTTTCTGTTCAAGCGCCATCTAC,0.847 RPM ratio (pull-down/input)
2,GATGATTGTTCTCCCAGCTGATGAATTGATTAGGTCGAGTAAACAAATTTTCCTAATCTTTCTGTTCAAGCGCCATCTAC,0.991 RPM ratio (pull-down/input)
3,GATGATTGTTCTCCCAGCTGATGAATTTACATCTTCGAGTAAACAAATTTTCCTAATCTTTCTGTTCAAGCGCCATCTAC,1.33 RPM ratio (pull-down/input)
4,GATGATTGTTCTCCCAGCTGATGAATTAACGCCTTCGAGTAAACAAATTTTCCTAATCTTTCTGTTCAAGCGCCATCTAC,0.993 RPM ratio (pull-down/input)
5,GATGATTGTTCTCCCAGCTGATGAATTGTTGGTGTCGAGTAAACAAATTTTCCTAATCTTTCTGTTCAAGCGCCATCTAC,1.8 RPM ratio (pull-down/input)
6,GATGATTGTTCTCCCAGCTGATGAATTACGCAGATCGAGTAAACAAATTTTCCTAATCTTTCTGTTCAAGCGCCATCTAC,0.961 RPM ratio (pull-down/input)
7,GATGATTGTTCTCCCAGCTGATGAATTACAAGTCTCGAGTAAACAAATTTTCCTAATCTTTCTGTTCAAGCGCCATCTAC,1.2 RPM ratio (pull-down/input)
8,GATGATTGTTCTCCCAGCTGATGAATTAGGCTACTCGAGTAAACAAATTTTCCTAATCTTTCTGTTCAAGCGCCATCTAC,0.94 RPM ratio (pull-down/input)
9,GATGATTGTTCTCCCAGCTGATGAATTACGTGCTTCGAGTAAACAAATTTTCCTAATCTTTCTGTTCAAGCGCCATCTAC,1.04 RPM ratio (pull-down/input)
10,GATGATTGTTCTCCCAGCTGATGAATTACGTGGGTCGAGTAAACAAATTTTCCTAATCTTTCTGTTCAAGCGCCATCTAC,0.946 RPM ratio (pull-down/input)
11,GATGATTGTTCTCCCAGCTGATGAATTGCTCCACTCGAGTAAACAAATTTTCCTAATCTTTCTGTTCAAGCGCCATCTAC,0.913 RPM ratio (pull-down/input)
12,GATGATTGTTCTCCCAGCTGATGAATTGGGAGTCTCGAGTAAACAAATTTTCCTAATCTTTCTGTTCAAGCGCCATCTAC,0.822 RPM ratio (pull-down/input)
13,GATGATTGTTCTCCCAGCTGATGAATTTTATGAATCGAGTAAACAAATTTTCCTAATCTTTCTGTTCAAGCGCCATCTAC,0.942 RPM ratio (pull-down/input)
14,GATGATTGTTCTCCCAGCTGATGAATTACTACCTTCGAGTAAACAAATTTTCCTAATCTTTCTGTTCAAGCGCCATCTAC,1.25 RPM ratio (pull-down/input)
15,GATGATTGTTCTCCCAGCTGATGAATTGTTGAATTCGAGTAAACAAATTTTCCTAATCTTTCTGTTCAAGCGCCATCTAC,1.15 RPM ratio (pull-down/input)
16,GATGATTGTTCTCCCAGCTGATGAATTGAGACGATCGAGTAAACAAATTTTCCTAATCTTTCTGTTCAAGCGCCATCTAC,0.824 RPM ratio (pull-down/input)
17,GATGATTGTTCTCCCAGCTGATGAATTCGCACGGTCGAGTAAACAAATTTTCCTAATCTTTCTGTTCAAGCGCCATCTAC,0.815 RPM ratio (pull-down/input)
18,GATGATTGTTCTCCCAGCTGATGAATTAAAGAGATCGAGTAAACAAATTTTCCTAATCTTTCTGTTCAAGCGCCATCTAC,0.909 RPM ratio (pull-down/input)
19,GATGATTGTTCTCCCAGCTGATGAATTCCCCGATTCGAGTAAACAAATTTTCCTAATCTTTCTGTTCAAGCGCCATCTAC,0.83 RPM ratio (pull-down/input)
20,GATGATTGTTCTCCCAGCTGATGAATTCATTTTATCGAGTAAACAAATTTTCCTAATCTTTCTGTTCAAGCGCCATCTAC,1.02 RPM ratio (pull-down/input)
21,GATGATTGTTCTCCCAGCTGATGAATTACGCCTATCGAGTAAACAAATTTTCCTAATCTTTCTGTTCAAGCGCCATCTAC,1.01 RPM ratio (pull-down/input)

row,Sequence,binding signal
1,GATGATTGTTCTCCCAGCTGATGAATTATACCTGTCGAGTAAACAAATTTTCCTAATCTTTCTGTTCAAGCGCCATCTAC,1.01 RPM ratio (pull-down/input)
2,GATGATTGTTCTCCCAGCTGATGAATTGTCATTATCGAGTAAACAAATTTTCCTAATCTTTCTGTTCAAGCGCCATCTAC,1.31 RPM ratio (pull-down/input)
3,GATGATTGTTCTCCCAGCTGATGAATTTGCAAAGTCGAGTAAACAAATTTTCCTAATCTTTCTGTTCAAGCGCCATCTAC,0.935 RPM ratio (pull-down/input)
4,GATGATTGTTCTCCCAGCTGATGAATTCGGTTGGTCGAGTAAACAAATTTTCCTAATCTTTCTGTTCAAGCGCCATCTAC,0.834 RPM ratio (pull-down/input)
5,GATGATTGTTCTCCCAGCTGATGAATTGTATGCCTCGAGTAAACAAATTTTCCTAATCTTTCTGTTCAAGCGCCATCTAC,1.07 RPM ratio (pull-down/input)
6,GATGATTGTTCTCCCAGCTGATGAATTCGTAGGTTCGAGTAAACAAATTTTCCTAATCTTTCTGTTCAAGCGCCATCTAC,0.854 RPM ratio (pull-down/input)
7,GATGATTGTTCTCCCAGCTGATGAATTTCTTGCGTCGAGTAAACAAATTTTCCTAATCTTTCTGTTCAAGCGCCATCTAC,0.964 RPM ratio (pull-down/input)
8,GATGATTGTTCTCCCAGCTGATGAATTGAGATAATCGAGTAAACAAATTTTCCTAATCTTTCTGTTCAAGCGCCATCTAC,1.17 RPM ratio (pull-down/input)
9,GATGATTGTTCTCCCAGCTGATGAATTTTCTAGATCGAGTAAACAAATTTTCCTAATCTTTCTGTTCAAGCGCCATCTAC,0.921 RPM ratio (pull-down/input)
10,GATGATTGTTCTCCCAGCTGATGAATTCCCGGGGTCGAGTAAACAAATTTTCCTAATCTTTCTGTTCAAGCGCCATCTAC,0.742 RPM ratio (pull-down/input)
11,GATGATTGTTCTCCCAGCTGATGAATTGCACTGTTCGAGTAAACAAATTTTCCTAATCTTTCTGTTCAAGCGCCATCTAC,1.18 RPM ratio (pull-down/input)
12,GATGATTGTTCTCCCAGCTGATGAATTTTTGCGGTCGAGTAAACAAATTTTCCTAATCTTTCTGTTCAAGCGCCATCTAC,0.901 RPM ratio (pull-down/input)
13,GATGATTGTTCTCCCAGCTGATGAATTACGACTATCGAGTAAACAAATTTTCCTAATCTTTCTGTTCAAGCGCCATCTAC,1.06 RPM ratio (pull-down/input)
14,GATGATTGTTCTCCCAGCTGATGAATTCAGCTATTCGAGTAAACAAATTTTCCTAATCTTTCTGTTCAAGCGCCATCTAC,0.939 RPM ratio (pull-down/input)
15,GATGATTGTTCTCCCAGCTGATGAATTCCAACAGTCGAGTAAACAAATTTTCCTAATCTTTCTGTTCAAGCGCCATCTAC,0.867 RPM ratio (pull-down/input)
16,GATGATTGTTCTCCCAGCTGATGAATTACGAGACTCGAGTAAACAAATTTTCCTAATCTTTCTGTTCAAGCGCCATCTAC,0.934 RPM ratio (pull-down/input)
17,GATGATTGTTCTCCCAGCTGATGAATTGGTAAAGTCGAGTAAACAAATTTTCCTAATCTTTCTGTTCAAGCGCCATCTAC,1.04 RPM ratio (pull-down/input)
18,GATGATTGTTCTCCCAGCTGATGAATTGTCGAGTTCGAGTAAACAAATTTTCCTAATCTTTCTGTTCAAGCGCCATCTAC,1.01 RPM ratio (pull-down/input)
19,GATGATTGTTCTCCCAGCTGATGAATTGTCTCCCTCGAGTAAACAAATTTTCCTAATCTTTCTGTTCAAGCGCCATCTAC,1.03 RPM ratio (pull-down/input)
20,GATGATTGTTCTCCCAGCTGATGAATTAATTGTATCGAGTAAACAAATTTTCCTAATCTTTCTGTTCAAGCGCCATCTAC,1.44 RPM ratio (pull-down/input)
21,GATGATTGTTCTCCCAGCTGATGAATTTGCACGCTCGAGTAAACAAATTTTCCTAATCTTTCTGTTCAAGCGCCATCTAC,0.948 RPM ratio (pull-down/input)
